Hit rate of the full screen: of about 55,000 compounds, about 530 (0.96%) were called active. The shares of active, inactive and inconclusive entries below differ from those in the screen. Calls come from the whole dose curve; as a rule, active = well fitted cell-killing curve with a large enough effect; inconclusive = small, poorly fitted or top-dose-only effect; inactive = no such curve, though single readings can be large or run the other way. Potencies beside an inconclusive call are fits to weak or partial responses and may not hold up.
Test: qHTS Screen for Compounds that Selectively Target Cancer Cells with p53 Mutations: Cytotoxicity of p53 Null Cells at the Nonpermissive Temperature; note: nearly all actives have a fitted effect of over 50% in size;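 for activity, negative = cell killing: 0% = DMSO only and -100% = full killing by 100 µM tamoxifen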
Conditions: H1299 p53-null (neo) cells, 39C, ATPlite viability, 24 h; activity, negative = cell killing: at 46.1 µM (top of the series)
Method in brief: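 Luminescent ATP signal reported cell survival after H1299 lines (neo, p53 null; or p53 A138V) received up to 46 uM compound and 24 hr incubation at 39C.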
Potency is the fitted concentration of half-maximal effect; tags give direction and shape of the fitted curve.

| Compound | Potency | activity, negative = cell killing |
| --- | --- | --- |
| Cc1oc(-c2ccccc2F)nc1CS(=O)(=O)CC(=O)N1CCN(c2ccc(Cl)cc2)CC1 | inconclusive: 12.6 µM [cytotoxic, single point] |  |
| Cc1ccc(S(=O)(=O)Nc2ccc3[nH]c(=O)sc3c2)cc1C | inconclusive: 0.158 µM [cytotoxic, full curve] |  |
| Cc1ccc(NC(=O)CN2C=NS(=O)(=O)c3ccccc32)c(C)c1 |  | inactive: 12.6% |
| Cc1c(NS(C)(=O)=O)cccc1-c1nc2ccccc2s1 | inconclusive: 15.8 µM [cytotoxic, partial curve] |  |
| Cc1cccc(C2C=C(c3ccc(F)cc3)Nc3nc4ccccc4n32)c1 (stereo unspecified) | inconclusive: 11.2 µM [cytotoxic, partial curve] |  |
| O=C(CCCc1ccccc1)c1ccc2c(c1)OCCO2 | active: 12.6 µM |  |
| CCc1ccc(-c2cc(C)no2)cc1S(=O)(=O)Nc1ccc(Cl)cc1 | inconclusive: 10 µM [cytotoxic, partial curve] |  |
| COc1ccc(CCNC(=O)c2nn(C)c3c2CSc2ccccc2-3)cc1OC | inconclusive: 12.6 µM [cytotoxic, single point] |  |
| O=C(NCc1ccccc1Cl)C1CCC(CNS(=O)(=O)c2ccc(Br)s2)CC1 (stereo unspecified) | inconclusive: 2.51 µM [cytotoxic, partial curve] |  |
| Cc1ccc(N(Cc2cccs2)C(=O)COc2ccccc2[N+](=O)[O-])cc1 | inconclusive: 0.0079 µM [cytotoxic, full curve, poor fit] |  |
| Cc1cccc(N2CCN(C(=O)Cn3c(=O)c4cccn4c4ccc(F)cc43)CC2)c1C | inconclusive: 31.6 µM [cytotoxic, single point] |  |
| COc1ccc(-c2ccc3c(N)c(C(=O)Nc4cccc(C)c4)sc3n2)cc1 | inconclusive: 10 µM [cytotoxic, single point] |  |
| CCCc1nnc(NC(=O)c2cc(=O)c3cc(C)c(C)cc3o2)s1 | inconclusive: 5.01 µM [cytotoxic, full curve, poor fit] |  |
| CCOC(=O)c1cnc2ccc(C)cc2c1Nc1ccc(N(CC)CC)cc1 | inconclusive: 15.8 µM [cytotoxic, single point] |  |
| Cc1ccc(Cn2c(=O)n(CCCCC(=O)NCc3ccccc3Cl)c(=O)c3ccccc32)cc1 |  | inactive: -10.3% |
| O=C(NCCc1ccc(Cl)cc1)c1cc(-c2ccc(Cl)cc2)n[nH]1 | inconclusive: 0.501 µM [cytotoxic, partial curve] |  |
| CC(=O)N1CCc2c(sc3c2c(=O)n(-c2cc(Cl)ccc2C)c(=O)n3Cc2ccccc2F)C1 | inconclusive: 35.5 µM [cytotoxic, single point] |  |
| Cn1c(=O)c2c(nc(NCCc3ccccc3)n2Cc2ccc(Cl)cc2)n(C)c1=O | inconclusive: 25.1 µM [cytotoxic, single point] |  |
| CCOC(=O)c1ccc(N2C(=O)c3n[nH]c(-c4cccs4)c3C2c2ccc(CC)cc2)cc1 (stereo unspecified) |  | inactive: -14.3% |
| COc1ccc(-n2cc(-c3ccc4c(c3)OCO4)n(CC(=O)Nc3cccc(C)c3C)c2=O)c(OC)c1 | inconclusive: 6.31 µM [cytotoxic, partial curve] |  |
| Cc1ccc(C)c(N2CCN(S(=O)(=O)c3ccc(-c4coc(C)n4)cc3)CC2)c1 |  | inactive: 20.8% |
| O=S(=O)(NCc1ccc(Cl)cc1)c1ccc2[nH]c3c(c2c1)CCCC3 | inconclusive: 15.8 µM [cytotoxic, single point] |  |

| Compound | Potency | activity, negative = cell killing |
| --- | --- | --- |
| CCOC(=O)c1cccc(NS(=O)(=O)c2ccc3[nH]c4c(c3c2)CCCC4)c1 | inconclusive: 31.6 µM [cytotoxic, single point] |  |
| Cc1cccc(C(=O)NCCc2nc3ccccc3n2Cc2ccc(Cl)cc2)c1 | inconclusive: 35.5 µM [cytotoxic, single point] |  |
| CCOC(=O)c1ccc2nc(C)cc(Nc3ccc(OC(C)C)cc3)c2c1 | inconclusive: 15.8 µM [cytotoxic, single point] |  |
| Cc1nc2cccnc2n1C1CCN(C(=O)Nc2ccccc2)CC1 |  | inactive: -7.31% |
| CCOC(=O)c1c(-c2ccccc2)oc2ccc(N(C(C)=O)S(=O)(=O)c3ccccc3)cc12 |  | inactive: -11.6% |
| NC(=O)CSc1nc2c(oc3ccccc32)c(=O)n1Cc1ccccc1 | inconclusive: 7.94 µM [cytotoxic, partial curve] |  |
| Cc1cccc(N2CCN(c3ncnc4c3nc3n4CCCCC3)CC2C)c1 (stereo unspecified) | inconclusive: 5.01 µM [cytotoxic, partial curve] |  |
| Cc1ccc(C(=O)Nc2ccccc2)cc1S(=O)(=O)Nc1ccccc1 |  | inactive: -7.68% |
| Cc1cccc(NC(=O)CCNS(=O)(=O)c2ccc3c(c2)CCN3C(=O)C2CC2)c1 | inconclusive: 20 µM [cytotoxic, partial curve] |  |
| Cc1ccc2c(CNCc3ccc(C)o3)c(C(=O)O)n(Cc3ccc(F)cc3)c2c1 | inconclusive: 3.98 µM [cytotoxic, full curve, poor fit] |  |
| Cc1ccc(C(=O)NC2(C(F)(F)F)N=C(c3ccccc3)N(Cc3ccccc3)C2=O)cc1 (stereo unspecified) |  | inactive: -7.76% |
| O=C(c1ccc(Cl)cc1)N1CCCCC(Sc2nnc(-c3ccc4c(c3)OCO4)o2)C1=O (stereo unspecified) | inconclusive: 2.82 µM [cytotoxic, full curve, poor fit] |  |
| Cc1ccc(NC(=O)/C(C#N)=C\c2ccc(-c3ccc(Cl)cc3)o2)c(C)c1 |  | inactive: -18.8% |
| COc1ccccc1NC(=O)C1=C(C)Nc2nc(SCc3ccccc3F)nn2C1c1ccncc1 (stereo unspecified) |  | inactive: 10.3% |
| CCOc1ccc(CCNC(=O)c2cc3cc4cc(OC)ccc4nc3s2)cc1OCC |  | inactive: -4.74% |
| CCOc1ccccc1NC(=O)Nc1ccc2nc(N3CCN(C)CC3)cc(C)c2c1 | active: 17.8 µM |  |
| CC(C)c1ccc(NC(=O)c2ccc3oc(=O)c(S(=O)(=O)c4ccc(F)cc4)cc3c2)cc1 | inconclusive: 6.31 µM [cytotoxic, partial curve, poor fit] |  |
| CCOC(=O)c1ccc(NC(=O)CC2Nc3cccc4cccc(c34)NC2=O)cc1 (stereo unspecified) | inconclusive: 31.6 µM [cytotoxic, single point] |  |
| COc1cccc(NS(=O)(=O)c2ccc3[nH]c4c(c3c2)CCCCCC4)c1 |  | inactive: 25.2% |
| COc1ccc(NC(=O)C(NC(=O)Cc2cccs2)c2ccc(OC)cc2)cc1 (stereo unspecified) | inconclusive: 0.0398 µM [cytotoxic, full curve, poor fit] |  |
| CCCCNc1nc2c(-c3cccc(C)c3)nnn2c2ccccc12 | inconclusive: 0.0045 µM [cytotoxic, full curve, poor fit] |  |
| COc1cc(OC)cc(C(=O)Nc2ccc3nc4c(c(Nc5ccc(OC)c(OC)c5)c3c2)CCCC4)c1 | inconclusive: 12.6 µM [cytotoxic, single point] |  |

| Compound | Potency | activity, negative = cell killing |
| --- | --- | --- |
| CCCC(=O)N1CCc2cc(OC)c(OC)cc2C1COc1ccc2c(C)cc(=O)oc2c1 (stereo unspecified) | inconclusive: 0.891 µM [cytotoxic, full curve, poor fit] |  |
| Cc1ccn2c(Nc3ccccc3C)c(-c3ccc(N4CCOCC4)cc3)nc2c1 |  | inactive: 7.23% |
| Cc1ccc(C2=CC(c3ccccc3C)n3c(nc4ccccc43)N2)cc1 (stereo unspecified) | inconclusive: 7.94 µM [cytotoxic, partial curve, poor fit] |  |
| O=C(CCn1cnc2onc(-c3ccc(F)cc3)c2c1=O)Nc1ccc(F)c(Cl)c1 | inconclusive: 15.8 µM [cytotoxic, single point] |  |
| C=CCc1ccccc1OCCSc1nc(-c2cccs2)nc2cc(=O)[nH]n12 |  | inactive: 0.731% |
| Cc1cn2c(=O)cc(COc3cccc(NC(=O)c4ccc(C(C)(C)C)cc4)c3)nc2s1 | inconclusive: 10 µM [cytotoxic, partial curve] |  |
| O=C1Nc2ccccc2Oc2cc(Oc3cccc(Cl)c3)ccc21 | inconclusive: 0.0126 µM [cytotoxic, full curve, poor fit] |  |
| CCc1ccc(-n2nnc(-c3nsc(NC(=O)c4ccccc4Cl)n3)c2C)cc1 |  | inactive: 7.96% |
| CC(=O)c1ccc(NC(=O)Nc2ccc3snnc3c2)cc1 | inconclusive: 10 µM [cytotoxic, single point] |  |
| Cc1ccc(-c2nc3cc(NC(=O)C(C)C)ccc3o2)cc1C |  | inactive: -9.75% |
| COc1ccc2c(c1)Cc1sc(NC(=O)c3ccccc3C)nc1-2 | inconclusive: 12.6 µM [cytotoxic, single point] |  |
| CCN(CCCNC(=O)CSc1cc(=O)n(CC)c2ccccc12)c1ccccc1 |  | inactive: -2.88% |
| CC(=O)N1CCC2(CC1)OC(=O)C(C)=C2C(=O)NCc1ccccc1Cl |  | inactive: -8.06% |
| Cc1c(C(=O)NCc2ccccc2Cl)sc2nc3n(c(=O)c12)CCCC3 | inconclusive: 10 µM [cytotoxic, partial curve] |  |
| CCCc1oc2ccc(NS(=O)(=O)c3ccc(OCC)cc3)cc2c1C(=O)OCC | active: 17.8 µM |  |
| CCc1ccc(CN(Cc2ccco2)C(=O)COc2ccccc2Cl)cc1 | inconclusive: 14.1 µM [cytotoxic, partial curve] |  |
| CCOC(=O)COc1ccc(/C=C(\C#N)c2nc3ccc(C)cc3[nH]2)cc1OC | inconclusive: 0.631 µM [cytotoxic, full curve] |  |
| C=Cc1ccc(Cn2c(C(=O)O)c(CNCc3ccc(F)cc3)c3ccc(C)cc32)cc1 | inconclusive: 10 µM [cytotoxic, partial curve] |  |
| CCC(C)(C)NC(=O)C1CCN(S(=O)(=O)c2ccc3c(c2)CCCN3C(C)=O)CC1 |  | inactive: 22.5% |
| CC(C)(C)c1ccc(/C=C/C(=O)Nc2ccc(S(N)(=O)=O)cc2)cc1 | inconclusive: 15.8 µM [cytotoxic, single point] |  |
| COc1ccc(Cn2c(C(=O)O)c(CNCCc3ccco3)c3ccc(OC)cc32)cc1 | inconclusive: 20 µM [cytotoxic, partial curve] |  |
| CCOc1cccc(NC(=O)C2CC(=O)N(CC)C(=Nc3ccc(F)cc3)S2)c1 (stereo unspecified) | inconclusive: 17.8 µM [cytotoxic, single point] |  |
